The RNAGym collection of RNA variant scans (doi:10.1101/gad.245936.114)
This sample is rich in variants without activity.

B1: tRNA (parent)
chain: CUCUCGGUAGCCAAGUUGGUUUAAGGCGCAAGACUUUAAUUUAUCACUACGAAAUCUUGAGAUCGGGCGUUCGACUCGCCCCCGGGAGAUUUUUUCCUCGAGCAA

Variants of: B1
Assay: nonsense suppression (GFP-seq) (ratio to wild type); higher = more function; SUP4oc tRNA, yeast GFP reporter sort-seq
In short: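 Yeast were grown in raffinose/galactose medium with 80 mg/L adenine, each strain bearing a genome-integrated ochre-suppressor tRNA variant from a ~3% random-mutation library, a galactose-driven GFP ochre reporter, and RFP. After sorting into GFP/RFP bins, every bin was sequenced on an Illumina platform at phred ≥30. The GFPSEQ value, a measure of nonsense suppression, is the weighted bin median GFP/RFP relative to the unmutated parent tRNA, using each variant's estimated cell share per bin as the weight. Only variants with ≥100 reads and ≥30 cells were included.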

Nonsense suppression, 0.0805:
C3U A31G

Nonsense suppression, 0.079:
C3U A54C

Nonsense suppression, 0.158:
C3U C5U

Nonsense suppression, 0.55:
C3U A60U

Nonsense suppression, ≤ 0.026:
C3G A14U
C3G A14U A33U G73U C75A C80A
C3G A14U G18U
C3G A23C C34U U76G
C3G A23G C27U C81A C83A G86A
C3G A23G G32C U58A A89G
C3G A23G U70C
C3G A23U G28U U57C G67A
C3G A24C G86U
C3G A30U A31G G65C
C3G A31C C68G C77U
C3G A33C U57C
C3G A33G A87U
C3G A33U C34U A62G G67C
C3G A54G
C3G A62C C83G
C3G A62U A74U
C3G A62U G78A
C3G A74U
C3G C5A G59C G73A
C3G C5G
C3G C5G C11A G59C
C3G C5G G69C G85U
C3G C5U A33U G78A
C3G C5U G65C
C3G C11A C81G
C3G C11A G18U A31G
C3G C11G A74C C79U
C3G C11G C34U C77A G84C
C3G C11G G67U
C3G C11U A31C G73C A74G G78A
C3G C11U G59U G85C
C3G C11U U17G A30U G65U C72G
C3G C12G G73A
C3G C12G U17C
C3G C12U
C3G C27G G88U
C3G C27U
C3G C27U U57C G59A G61A
C3G C29G A54U
C3G C34A G61U
C3G C34U U70C
C3G C64A
C3G C64G
C3G C64G G86A
C3G C64U
C3G C72G
C3G C77A
C3G C77A C83A
C3G C77G
C3G C83A
C3G C83G A89C
C3G C83U
C3G G6A U70G G73C A74C G88U
C3G G6C G10U
C3G G6C U16C C72U U76A
C3G G7C
C3G G7C G26U A31C C68G
C3G G7U
C3G G7U A23C G86C
C3G G7U G25C C27U G67A
C3G G7U U8G U17G C79A
C3G G10U
C3G G18C U20A
C3G G19A C64A
C3G G19U A33C C72A G73U
C3G G25C G28U C79U
C3G G25C G59A C77A G85C
C3G G25U G85U G88A
C3G G26A G28C U58G G61A A74G
C3G G28U A33G A60U C64U
C3G G59A G61C G86C
C3G G59A G78U A87U
C3G G61U
C3G G66C U76C
C3G G67A C81G C82U
C3G G67U C72G
C3G G78A
C3G G84A
C3G G84U
C3G G86A
C3G U4C A14C U70G
C3G U4G C34A G85C
C3G U8G
C3G U8G U21C C34U
C3G U8G U35A G86C
C3G U16A
C3G U16C G18C A54C
C3G U16G G18A A54G G69U
C3G U17G G73A
C3G U20A
C3G U20A A60C
C3G U21C C27A
C3G U35A G69A U76A C83G
C3G U35G
C3G U63G U70C A87G
C3G U70A
C3G U71C
C3U A9C C12G C81A
C3U A9C C77G
C3U A9C U16C G19A U76C C77U
C3U A9U
C3U A9U A14U G28C U76A
C3U A9U A30G A54U G67A
C3U A9U C29U G65C G86A
C3U A9U G86U
C3U A13C C29U A33G A74C
C3U A13G C34G G59A G67A G78C
C3U A13G G26C G65U G69C
C3U A13U A14U U22C A30G U76A
C3U A14G A62G C80G C81G A89U
C3U A14U A30G G59A C79G
C3U A23C
C3U A23C G32C C68G
C3U A23G C34U A60G
C3U A23U A74C
C3U A24U C79U
C3U A24U U55C G69A
C3U A30C C77G
C3U A30G
C3U A30G C34U
C3U A30U
C3U A30U A74C U76A C77A C82G G85A
C3U A31C
C3U A60C
C3U A60C G67U G86A G88C
C3U A60G G66U
C3U A62U
C3U A74C G84C
C3U A87U
C3U A89G
C3U C5A G26U
C3U C5G C80A C81U
C3U C5U C29U A74G
C3U C5U C75G
C3U C5U G10U G65A G88U
C3U C5U U76A C81A
C3U C11A U22C
C3U C11A U22G G59C
C3U C11U A14G U22C U35C G61U
C3U C12A C34A
C3U C12A U17G U20C U71G A89C
C3U C12A U35G U71A
C3U C12G
C3U C12G U17C G26U U35G
C3U C12U A60G G67A
C3U C12U C27G C34A
C3U C12U U70C
C3U C27A G88U
C3U C27G A89U
C3U C27G C80G G84C
C3U C27G G32U
C3U C27U
C3U C29G
C3U C29U G78C
C3U C34A
C3U C34A U58G U70C G88A A89C
C3U C34U
C3U C34U U71A A74U
C3U C72U A74C C77A
C3U C75A U76A A89C
C3U C77U

Nonsense suppression, 0.0277:
C3G U4G
